This note sets out measurements from ChEMBL document CHEMBL4888484, “Replenishing the malaria drug discovery pipeline: Screening and hit evaluation of the MMV Hit Generation Library 1 (HGL1) against asexual blood stage Plasmodium falciparum ,using a nano luciferase reporter read-out” (2022).

Molecules are shown by their SMILES. Out of some 150,000 compounds screened, about 540 (0.36%) showed an effect of 50% or more. This is one part of the list.

In the test the test system is Plasmodium falciparum. The experiment in a line: Primary screen in NF54 nanoGlo assay, in single point, at 2uM, 72h; a lower Z score goes with more inhibition. The class given is functional, Erythrocyte. The note with it: timepoint 72 hour.
As a reminder, the % Inhibition is the change of the read-out against control, counted positive when it falls. Turning to `O=C(NCc1ccno1)c1cnn(CC2CCCC2)c1`, the “% Inhibition” value is on record as -15% and the Z score was determined as 1.68.

With `Cc1ccc2nc(-c3ccc(F)cc3)c(CN[C@H]3CCOC(C)(C)C3)cc2c1`, the “% Inhibition” value is on record as -3% and the Z score was 0.6.

As to `COc1ccc(S(=O)(=O)N2CCNC[C@](C)(F)C2)cn1`, the “% Inhibition” value is -6% and the Z score came to 1.13.

`C[C@H](OC(=O)COc1cccc(Cl)c1)C(=O)N1CCc2ccccc21`: the “% Inhibition” value was -7% and the Z score worked out at 0.93.

Consider `CCOc1cc(C(=O)NC[C@H]2CN(c3nncs3)CCO2)n[nH]1`, for which the “% Inhibition” value is -5% and the Z score is 0.57.

As for `COCCN(Cc1ccc(OC)c(OS(=O)(=O)c2ccc(F)cc2)c1)C(=O)c1ccco1`, the “% Inhibition” value is on record as -7% and the Z score amounted to 0.94.

For the compound `NC(=O)C1CCN(c2ccc(NC(=O)c3cccc(Br)c3)cc2S(=O)(=O)N2CCOCC2)CC1`, the “% Inhibition” value was -2% and the Z score is on record as 0.22.

Turning to `CONC(=O)C=C(C)c1ccccc1Cl`, the “% Inhibition” value is recorded as -10% and the Z score turned out to be 1.83.

On to `CCN(c1ccncc1)S(=O)(=O)CCO[C@H]1CCOC1`, for which the “% Inhibition” value was -6% and the Z score is recorded as 0.86.

For `O=C(NS(=O)(=O)c1cccc2c1OC(F)(F)O2)C1C2CCCCC21` (centres undefined), the “% Inhibition” value is given as -13% and the Z score is on record as 2.02.

On to `Cc1cc(NC(=O)CN2C(=O)CCC2=O)sn1`, for which the “% Inhibition” value is on record as -4% and the Z score is listed as 0.75.

As to `CN(CC(=O)Nc1ccc(Cl)cc1)C(=O)C1CCC1`, the “% Inhibition” value was 7% and the Z score is -0.77.

As to `CC(C)COCC(O)CN1CCOC(CN(CC(C)C)C(=O)c2ccc(F)cc2)C1` (centres undefined), the “% Inhibition” value was -19% and the Z score stood at 1.81.

As for `COc1ccc(CCC(=O)N2CC[C@H](Oc3ccc(C)nn3)C2)cc1`, the “% Inhibition” value is recorded as -7% and the Z score is recorded as 1.13.

For `CC1=C(C(=O)N2CCN(C(=O)c3ccc4[nH]cnc4c3)CC2)CCC1`, the “% Inhibition” value is -3% and the Z score is on record as 0.52.

As for `CCN(CC)C(=O)N1CCC(C(=O)Nc2cc(CN(C)C)ccn2)CC1`, the “% Inhibition” value was 2% and the Z score is -0.36.

For the compound `NS(=O)(=O)C1(c2nc(-c3ccc(Br)o3)no2)CC1`, the “% Inhibition” value is -11% and the Z score was 1.82.

For the compound `Cc1nn(C)c2c1N(C(=O)OC(C)(C)C)C[C@H](C)N2`, the “% Inhibition” value came to 3% and the Z score is -0.4.

Consider `Cc1ccnc(NC(=O)[C@H]2CCCO2)c1Br`, for which the “% Inhibition” value is given as -5% and the Z score was 0.92.

As for `Cc1nc(C)c(Cn2cncc(Br)c2=O)s1`, the “% Inhibition” value is recorded as -1% and the Z score is 0.14.

For `CCc1nnc(C(=O)N[C@H]2CCS(=O)(=O)C3(CCC3)C2)s1`, the “% Inhibition” value is given as -13% and the Z score is 1.36.

Regarding `CC1CCN(CC(O)CN2CCCC2c2cnn(C)c2)CC1` (centres undefined), the “% Inhibition” value is on record as -6% and the Z score is 0.83.

For the compound `CCN1CCO[C@H](C(=O)Nc2cccc(-n3c(C)c[nH]c3=O)c2)C1`, the “% Inhibition” value is -21% and the Z score stood at 3.91.

With `CC(=O)N1CCC(C(=O)Nc2cccc(-c3noc(C4CCCC4)n3)c2)CC1`, the “% Inhibition” value was -11% and the Z score is reported as 1.9.

`CCCN1CCC2(CC1)Nc1ccccc1N(CC(C)(C)C)C2=O`: the “% Inhibition” value was 7% and the Z score was -1.02.

For the compound `CC(C)c1nsc(N2CCC(O)(c3ncnn3C)CC2)n1`, the “% Inhibition” value came out at 6% and the Z score is -1.1.

Consider `Cc1cnc(C2CC2)n1C1CCN(C(=O)[C@H](C)Oc2ccccc2)CC1`, for which the “% Inhibition” value is -8% and the Z score was 1.05.

Take `COCCN(Cc1ccsc1)C(=O)NCc1ccc(F)cc1`: the “% Inhibition” value is recorded as -13% and the Z score turned out to be 1.85.

In the case of `COc1ccc(CN(C(=O)NC[C@H]2CCCO2)C2CCCC2)c(OC)c1OC`, the “% Inhibition” value is -2% and the Z score was determined as 0.26.

On to `CC[C@@H](C(=O)Nc1ccccc1C(F)(F)F)n1nc(C)c2c(C)onc2c1=O`, for which the “% Inhibition” value was 4% and the Z score was -0.4.

With `CCn1cnc2cc(-c3noc(-c4cc5ccccc5[nH]4)n3)ccc21`, the “% Inhibition” value is given as 4% and the Z score was -0.52.

Regarding `Cc1cnc2c(Cl)c(C(=O)NCCN3CCCC[C@@H]3CO)nn2c1`, the “% Inhibition” value is listed as -9% and the Z score was found to be 1.44.

For the compound `C[C@H]1CCCCN1Cc1ncnn1Cc1cccc(Cl)c1`, the “% Inhibition” value was -6% and the Z score is listed as 0.75.

Turning to `CO[C@H]1CN(C2CCN(C(=O)Nc3ccccc3)CC2)[C@H]1c1ccncc1`, the “% Inhibition” value turned out to be 3% and the Z score is -0.38.

Turning to `Cc1ccc(OC2CCN(S(C)(=O)=O)CC2)nn1`, the “% Inhibition” value is on record as -13% and the Z score was 2.51.

For the compound `COC(C)(C)C(=O)[C@H](CC#CCN1CCOCC1)C(=O)c1ccccc1`, the “% Inhibition” value was -4% and the Z score was 0.5.

For the compound `C[C@@H]1CN(Cc2cnc3c(-c4ccccc4)cnn3c2)[C@@H](C)CN1`, the “% Inhibition” value is listed as 2% and the Z score is reported as -0.29.

As to `c1ccc2ncc(Cn3cnnc3)cc2c1`, the “% Inhibition” value is reported as 15% and the Z score is -2.01.

As to `Cc1cc(C(=O)n2nccc2N)c(C)n1C1CC1`, the “% Inhibition” value turned out to be 0% and the Z score is listed as -0.02.

Take `COc1ccc(CCN2C[C@H](O)C(C)(C)COCCC[C@H]3CN(Cc4ccc(S(C)(=O)=O)cc4)CC[C@H]3CC2=O)cc1`: the “% Inhibition” value was -6% and the Z score is 0.97.

`CC(C)=CCN1C(=O)[C@@H]2CC[C@H]1CN(C(=O)c1ccc[nH]1)C2`: the “% Inhibition” value is -12% and the Z score was found to be 2.63.

`O=C(NC[C@H](NC(=O)N1CCOCC1)C1CCCC1)N1CCOCC1`: the “% Inhibition” value is recorded as -5% and the Z score worked out at 0.86.
